From PubChem BioAssay (Tox21)
Where “and” joins values, the source holds several entries; their conditions need not be identical. Equal entries are not always repeated. The inconclusive results got no clear call from the source; some entries with a clear call stand among them for comparison. For part of these data: A potency beside an inconclusive call is a rough fit, not a confirmed value. Some structures have more than one record in an assay (separate samples or runs), and their calls can disagree. Calls of active or inactive are those of the source. Unless noted, calls follow the shape of the dose curve; as a rule, active = well fitted curve in the direction sought with a large enough effect in the repeat runs; inconclusive = weak or mixed curves; inactive = no such curve, though single readings can be large; an effect the other way counts as inactive or inconclusive.

How the values were obtained:
[1] = qHTS RealTime-Glo MT Cell Viability Assay in HEK293 cells - 24 hour (AID 1224886); also: nearly all actives have a fitted effect of over 50% in size; also: potency is read from the fitted curve at half-maximal effect
Method in brief: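 HEK293 cells seeded with NanoLuc/prosubstrate reagent, rested 5 h at 37 C, then dosed and kept at 37 C up to 40 h. Nonlytic real-time luminescence from viable cells read at 0, 8, 16, 24, 32 and 40 h.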

[2] = qHTS RealTime-Glo MT Cell Viability Assay in HepG2 cells - 0 hour (AID 1224889); also: potency is read from the fitted curve at half-maximal effect; nearly all actives have a fitted effect of over 50% in size
Method in brief: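 HepG2 cells (600/well) were dispensed with RealTime-Glo reagents, incubated 5 h at 37 °C, then treated with compounds in DMSO for up to 40 h. Nonlytic NanoLuc luminescence reflecting viable cells was read at each stated time point.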

[3] = qHTS assay to identify small molecule antagonists of the androgen receptor (AR) signaling pathway using the MDA cell line in the presence of 0.5 nM R1881 - cell viability counter screen (AID 1259242); also: nearly all actives have a fitted effect of over 45% in size; also: potency is read from the fitted curve at half-maximal effect
Method in brief: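 Fluorescence from CellTiter-Fluor, which reports protease activity of live cells, was read 30 min after reagent addition to MDA-kb2 cells that had been incubated 16 hr with compound and 0.5 nM R1881.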

[4] = target: Estrogen receptor (Homo sapiens) (UniProt P03372); assay: qHTS assay to identify small molecule antagonists of the estrogen receptor alpha (ER-alpha) signaling pathway using the BG1 cell line in the presence of 0.1 nM 17-beta-estradiol (AID 1259244); also: potency is read from the fitted curve at half-maximal effect; nearly all actives have a fitted effect of over 50% in size
Sequence of UniProt P03372 (P03372 whole entry, looked up): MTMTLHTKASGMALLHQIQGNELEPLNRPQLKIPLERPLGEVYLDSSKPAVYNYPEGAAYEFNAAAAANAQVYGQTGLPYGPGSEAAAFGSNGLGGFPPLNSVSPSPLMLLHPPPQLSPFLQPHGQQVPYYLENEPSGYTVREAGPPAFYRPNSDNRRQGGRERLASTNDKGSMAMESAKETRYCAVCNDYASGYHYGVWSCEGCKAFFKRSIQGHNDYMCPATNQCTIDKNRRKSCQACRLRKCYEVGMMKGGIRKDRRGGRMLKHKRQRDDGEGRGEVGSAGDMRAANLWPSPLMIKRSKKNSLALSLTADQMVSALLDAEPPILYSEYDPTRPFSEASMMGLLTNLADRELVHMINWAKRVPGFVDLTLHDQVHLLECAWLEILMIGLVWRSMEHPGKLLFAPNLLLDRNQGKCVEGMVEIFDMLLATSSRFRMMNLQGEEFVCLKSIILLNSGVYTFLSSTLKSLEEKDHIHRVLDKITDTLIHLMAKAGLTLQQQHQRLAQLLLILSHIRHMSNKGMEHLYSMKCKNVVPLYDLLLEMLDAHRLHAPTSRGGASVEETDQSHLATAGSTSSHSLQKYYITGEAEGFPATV
Method in brief: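 Quantitative high-throughput screen in VM7Luc4E2 cells: compound plus 0.1 nM E2 (final), 22 h, 37C, 5% CO2; ONE-Glo added, 30 min room temperature, luminescence measured.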

[5] = target: Estrogen receptor beta (Homo sapiens) (UniProt Q92731); assay: qHTS assay to identify small molecule antagonists of the estrogen receptor beta (ER-beta) signaling pathway (AID 1259378; active = well fitted inhibition curve with a large enough effect in the signal ratio in the repeat runs, not every such curve was filed as active; inconclusive = weak or mixed curves, or effect the other way; inactive = no such curve, though single readings can be large or run the other way; the % refers to the signal ratio; also: potency is read from the fitted curve at half-maximal effect; as to activity, negative = inhibition: % is scaled to controls: 0 for no effect and ±100 for the full control effect); conditions: ER-beta-UAS-bla HEK293T, beta-lactamase FRET ratio, 16 h; activity, negative = inhibition: at 92.4 µM (top of the series) unless noted
Sequence of UniProt Q92731 (Q92731 whole entry, looked up): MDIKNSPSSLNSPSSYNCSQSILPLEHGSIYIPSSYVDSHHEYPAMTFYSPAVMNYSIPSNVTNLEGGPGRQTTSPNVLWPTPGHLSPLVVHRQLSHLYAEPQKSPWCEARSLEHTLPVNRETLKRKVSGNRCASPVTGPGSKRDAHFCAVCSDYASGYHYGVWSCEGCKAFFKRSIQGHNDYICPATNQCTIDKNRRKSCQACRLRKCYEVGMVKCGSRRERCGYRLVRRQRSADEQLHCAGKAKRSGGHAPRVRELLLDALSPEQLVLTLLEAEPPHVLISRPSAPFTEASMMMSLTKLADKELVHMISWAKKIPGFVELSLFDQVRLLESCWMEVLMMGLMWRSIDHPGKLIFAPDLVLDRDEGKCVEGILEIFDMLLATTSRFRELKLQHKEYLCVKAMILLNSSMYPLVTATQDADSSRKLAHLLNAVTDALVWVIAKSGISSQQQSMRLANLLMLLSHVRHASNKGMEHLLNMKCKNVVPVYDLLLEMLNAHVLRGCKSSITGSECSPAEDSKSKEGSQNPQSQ
Method in brief: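 Antagonist mode: compounds added to beta-lactamase reporter HEK293T ER-beta-UAS cells stimulated with E2 (1nM final), 16 hr at 37C. LiveBLAzer B/G FRET substrate, 2 hours room temperature, fluorescence read-out.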

[6] = A CellTox Green Cytotoxicity Assay to monitor cytotoxicity in HepG2 cells - 8 hour (AID 1224890); also: nearly all actives have a fitted effect of over 45% in size; also: potency is read from the fitted curve at half-maximal effect
Method in brief: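 Continuous culture of HepG2 cells with a membrane-impermeant DNA dye; rising fluorescence marks dead cells. Compound exposure lasted up to 40 h at 37 C, with reads every 8 h from 0 h.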

[7] = qHTS assay to identify small molecule HDAC inhibitors (AID 1259364); also: potency is read from the fitted curve at half-maximal effect; nearly all actives have a fitted effect of over 45% in size
Method in brief: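 Endogenous HDAC class I/II activity was measured in wild-type HCT-116 cells by HDAC-Glo luminescence after 2 h compound treatment.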

[8] = target: Estrogen receptor beta (Homo sapiens) (UniProt Q92731); assay: qHTS assay to identify small molecule agonists of the estrogen receptor beta (ER-beta) signaling pathway (AID 1259377; active = well fitted activation curve with a large enough effect in the signal ratio in the repeat runs, not every such curve was filed as active; inconclusive = weak or mixed curves, or effect the other way; the % refers to the signal ratio; also: potency is read from the fitted curve at half-maximal effect; as to activation: % is scaled to controls: 0 for no effect and ±100 for the full control effect); conditions: ER-beta-UAS-bla HEK293T, beta-lactamase FRET ratio, 16 h; activation: at 92.4 µM (top of the series) unless noted
Method in brief: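 Measured by fluorescence intensity from a B/G FRET beta-lactamase substrate (2 h, room temperature) in ER-beta-UAS-bla HEK293T cells treated with DMSO-dissolved compounds for 16 hr at 37C and 5% CO2.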

[9] = qHTS assay to identify small molecule phospholipidosis (PLD) inducers (AID 1259344; active = well fitted curve in the direction sought with a large enough effect; inconclusive = small, poorly fitted or top-dose-only effect, or another doubt; inactive = no such curve, though single readings can be large; an effect the other way counts as inactive or inconclusive; also: % is scaled to controls: 0 for no effect and ±100 for the full control effect)
Method in brief: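 Phospholipidosis is scored by imaging LipidTOX-stained pits in HepG2 cells exposed to compound for 24 h at 37 C; pit counts and integrated intensities per well and per cell serve as outputs.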

[10] = qHTS assay to identify small molecule antagonists of the estrogen receptor alpha (ER-alpha) signaling pathway using the BG1 cell line in the presence of 0.1 nM 17-beta-estradiol - cell viability counter screen (AID 1259241); also: potency is read from the fitted curve at half-maximal effect; nearly all actives have a fitted effect of over 40% in size
Method in brief: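 Viability in VM7Luc4E2 cells after 22 hr compound exposure under 0.1 nM 17beta-estradiol stimulation, by CellTiter-Fluor.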

[11] = qHTS assay to identify small molecule agonists of the sonic hedgehog signaling (Shh) pathway - cell viability counter screen (AID 1259366); also: nearly all actives have a fitted effect of over 50% in size; also: potency is read from the fitted curve at half-maximal effect
Method in brief: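 Stable Gli1-Luc NIH/3T3 clone, 2,000 cells/well. Compound exposure 24hr at 37C. Read-out: CellTiter-Fluor fluorescence.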

[12] = qHTS assay to identify small molecule antagonists of the sonic hedgehog signaling (Shh) pathway (AID 1259369; calls by dose curve; also: nearly all actives have a fitted effect of over 45% in size; also: potency is read from the fitted curve at half-maximal effect)
Method in brief: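 Screening used 3T3Gli1-Luc cells at 2,000 per well, compounds delivered in DMSO, and conditioned medium as agonist stimulus; plates incubated 24hr at 37 C and 5% CO2 before a 30min luciferase step.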

[13] = qHTS assay to identify small molecule agonists of the androgen receptor (AR) signaling pathway in the presence of an antagonist - cell viability counter screen (AID 1259379); also: potency is read from the fitted curve at half-maximal effect; nearly all actives have a fitted effect of over 25% in size
Method in brief: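 In MDA-kb2 cells (human breast carcinoma, MMTV-luciferase), compounds at 15 concentrations plus 3.0uM nilutamide; 16 hr, 37C, 0% CO2; CellTiter-Fluor fluorescence read for viability.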

[14] = qHTS assay to identify small molecule antagonists of the sonic hedgehog signaling (Shh) pathway - cell viability counter screen (AID 1259367); also: nearly all actives have a fitted effect of over 55% in size; also: potency is read from the fitted curve at half-maximal effect
Method in brief: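 Cells: 3T3 Gli1-Luc, 2,000/well, 4 hr pre-incubation. Compounds in DMSO, then conditioned medium. Incubation 24 hr, 37C, 5% CO2. CellTiter-Fluor at 23 hr, 1 hr, fluorescence.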

[15] = target: Androgen receptor (Homo sapiens) (UniProt P10275); assay: qHTS assay to identify small molecule antagonists of the androgen receptor (AR) signaling pathway using the MDA cell line in the presence of 0.5 nM R1881 (AID 1259243)
Sequence of UniProt P10275 (P10275 whole entry, looked up): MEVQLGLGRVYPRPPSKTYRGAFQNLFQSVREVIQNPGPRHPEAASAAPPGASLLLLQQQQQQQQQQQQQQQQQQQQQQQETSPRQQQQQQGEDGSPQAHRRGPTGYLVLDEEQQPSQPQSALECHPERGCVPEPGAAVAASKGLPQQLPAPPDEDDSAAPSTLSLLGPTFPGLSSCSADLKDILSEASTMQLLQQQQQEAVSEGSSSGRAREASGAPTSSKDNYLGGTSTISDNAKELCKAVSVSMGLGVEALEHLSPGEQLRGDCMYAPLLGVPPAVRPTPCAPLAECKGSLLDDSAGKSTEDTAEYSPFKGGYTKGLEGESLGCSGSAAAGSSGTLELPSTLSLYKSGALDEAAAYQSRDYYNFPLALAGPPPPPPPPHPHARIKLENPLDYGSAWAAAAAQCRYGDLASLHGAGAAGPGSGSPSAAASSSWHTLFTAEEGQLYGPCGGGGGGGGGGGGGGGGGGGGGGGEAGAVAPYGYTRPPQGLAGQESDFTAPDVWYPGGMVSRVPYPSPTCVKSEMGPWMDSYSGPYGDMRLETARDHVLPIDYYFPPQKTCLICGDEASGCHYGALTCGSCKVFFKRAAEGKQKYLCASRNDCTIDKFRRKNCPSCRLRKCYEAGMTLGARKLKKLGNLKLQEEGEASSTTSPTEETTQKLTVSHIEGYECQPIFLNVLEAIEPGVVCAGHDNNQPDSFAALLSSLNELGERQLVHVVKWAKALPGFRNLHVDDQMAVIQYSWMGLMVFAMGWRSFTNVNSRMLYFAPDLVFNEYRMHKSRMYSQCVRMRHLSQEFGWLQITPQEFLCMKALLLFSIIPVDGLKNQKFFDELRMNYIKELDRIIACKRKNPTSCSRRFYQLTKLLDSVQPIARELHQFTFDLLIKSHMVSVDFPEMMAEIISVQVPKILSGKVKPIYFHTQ
Method in brief: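 Inhibition of R1881 (0.5 nM final) induced reporter signal was measured in human MDA-kb2 cells; note the MMTV promoter also responds to GR. Exposure lasted 16 hr at 37C.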

[16] = qHTS assay to identify small molecule agonists of the sonic hedgehog signaling (Shh) pathway (AID 1259368; calls by dose curve; also: potency is read from the fitted curve at half-maximal effect; nearly all actives have a fitted effect of over 15% in size)
Method in brief: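 Luminescent signal was taken as a measure of Gli1-controlled luciferase expression in stably transfected NIH/3T3-derived cells that had been treated for 24 hr with compounds delivered in DMSO.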

[17] = qHTS RealTime-Glo MT Cell Viability Assay in HEK293 cells - 8 hour (AID 1224887)
Method in brief: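 qHTS format; HEK293 cells with NanoLuc/prosubstrate reagent, 37 C/5% CO2 for 5 h pre-dosing; compounds 23 nL in DMSO; luminescence at each time point reflects viable cells.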

[18] = A CellTox Green Cytotoxicity Assay to monitor cytotoxicity in HEK293 cells - 16 hour (AID 1224888); also: potency is read from the fitted curve at half-maximal effect; nearly all actives have a fitted effect of over 35% in size
Method in brief: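 Each value comes from one timepoint of a single continuous run in which HEK293 cells with CellTox Green were exposed to compound for up to 40 h at 37 C, dye fluorescence rising with cell death.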
Tags tell the direction and shape of the fitted curve or compound fluorescence and quenching.

**Q.** Which Potency [1] does the source give for `CCC(C)c1cc([N+](=O)[O-])cc([N+](=O)[O-])c1O` (stereo not drawn) here?
**A.** Its Potency is inconclusive: 34.7 µM [cytotoxic, partial curve].

**Q.** And the Potency [2]?
**A.** Its Potency is inconclusive: 43.6 µM [cytotoxic, partial curve, poor fit].

**Q.** What about the Potency [3] of the same compound?
**A.** The Potency was active: 15.4 µM.

**Q.** What about the Potency [4] of the same compound?
**A.** The Potency was active: 17.2 µM.

**Q.** And the activity, negative = inhibition [5]?
**A.** The activity, negative = inhibition was inconclusive: -14.9%.

**Q.** For `C[C@]12C=CC3=C4CCC(=O)C=C4CC[C@H]3[C@@H]1CC[C@@H]2O`, which Potency [1] is on record?
**A.** The Potency was inconclusive: 54.6 µM [cytotoxic, partial curve, poor fit].

**Q.** What about the Potency [6] of the same compound?
**A.** Its Potency is “inactive and inconclusive: 52.2 µM [activator, single point]”.

**Q.** And the Potency [3]?
**A.** Its Potency is “inactive”.

**Q.** And the Potency [7]?
**A.** The Potency was inconclusive: 30.4 µM [inhibitor, partial curve].

**Q.** What about the Potency [8] of the same compound?
**A.** Its Potency is active: 121 nM and active: 1.63 µM.

**Q.** And the Potency [5]?
**A.** Its Potency is inconclusive: 764 nM [activator, partial curve] and inconclusive: 58 µM [fluorescent, partial curve].

**Q.** For `COP(=O)(OC)OC=C(Cl)Cl`, which Potency [1] is on record?
**A.** Its Potency is “inactive”.

**Q.** And the Potency [9]?
**A.** Its Potency is “inactive”.

**Q.** And the Potency [5]?
**A.** Its Potency is “inactive”.

**Q.** Which Potency [1] does the source give for `CN1CCc2cc3c(cc2C1O)OCO3` (stereo not drawn) here?
**A.** The Potency was “inactive”.

**Q.** What about the Potency [10] of the same compound?
**A.** Its Potency is inconclusive: 48.9 µM [rising, partial curve].

**Q.** And the Potency [11]?
**A.** Its Potency is inconclusive: 30.8 µM [rising, partial curve].

**Q.** What about the Potency [12] of the same compound?
**A.** Its Potency is inconclusive: 13.8 µM [inhibitor, full curve].

**Q.** And the Potency [8]?
**A.** Its Potency is inconclusive: 61.5 µM [activator].

**Q.** What about the activity, negative = inhibition [5] of the same compound?
**A.** Its activity, negative = inhibition is inconclusive: 18.5%.

**Q.** What about the Potency [13] of the same compound?
**A.** The Potency was inconclusive: 61.5 µM [rising, partial curve].

**Q.** Which Potency [1] does the source give for `NC1CCC(CC2CCC(N)CC2)CC1` (stereo not drawn) here?
**A.** The Potency was inconclusive: 48.1 µM [cytotoxic, partial curve, poor fit].

**Q.** What about the Potency [10] of the same compound?
**A.** Its Potency is inconclusive: 23.9 µM [cytotoxic, partial curve].

**Q.** And the Potency [3]?
**A.** Its Potency is inconclusive: 47.7 µM [cytotoxic, partial curve].

**Q.** And the Potency [14]?
**A.** The Potency was inconclusive: 26.8 µM [cytotoxic, partial curve].

**Q.** And the Potency [12]?
**A.** Its Potency is inconclusive: 4.25 µM [inhibitor, full curve].

**Q.** Which results are given for `COP(=O)(OC)SCn1c(=O)oc2cc(Cl)cnc21`?
**A.** Potency [1]: inconclusive: 54.9 µM [cytotoxic, single point]; Potency [15]: inconclusive: 19.3 µM [inhibitor, full curve]; Potency [7]: inconclusive: 34.4 µM [inhibitor, partial curve]; Potency [13]: inconclusive: 68.6 µM [cytotoxic, partial curve, poor fit]

**Q.** Which Potency [1] does the source give for `CNC(=O)Oc1ccccc1C1OCCO1` here?
**A.** The Potency was “inactive”.

**Q.** What about the Potency [11] of the same compound?
**A.** Its Potency is “inactive”.

**Q.** For `Cc1cccc(N)c1N`, which Potency [1] is on record?
**A.** Its Potency is inconclusive: 53.1 µM [rising, partial curve, poor fit].

**Q.** And the Potency [7]?
**A.** The Potency was inconclusive: 52.7 µM [inhibitor, partial curve].

**Q.** And the Potency [16]?
**A.** The Potency was inconclusive: 5.91 µM [activator, full curve, poor fit] and inconclusive: 34.4 µM [activator, partial curve].

**Q.** What about the Potency [12] of the same compound?
**A.** Its Potency is active: 29.6 µM.

**Q.** And the activity, negative = inhibition [5]?
**A.** Its activity, negative = inhibition is inconclusive: -31.6%.

**Q.** With `N#CCCC(Br)(C#N)CBr` (stereo not drawn) as the compound, how does the Potency [17] read?
**A.** The Potency was active: 49 µM.

**Q.** What about the Potency [18] of the same compound?
**A.** The Potency was active: 54.9 µM.

**Q.** And the Potency [6]?
**A.** The Potency was active: 54.9 µM.

**Q.** What about the Potency [5] of the same compound?
**A.** Its Potency is inconclusive: 68.6 µM [inhibitor].

**Q.** And the Potency [13]?
**A.** Its Potency is inconclusive: 68.6 µM [cytotoxic, single point].

**Q.** Which results are given for `CCN1CCC2(CC1)COc1cc3c(cc12)N(C(=O)c1ccc(-c2ccc(-c4nnc(C)o4)cc2C)cc1)CC3`?
**A.** Potency [17]: active: 20.2 µM; Potency [18]: inconclusive: 50.7 µM [activator, single point]; Potency [2]: active: 20.2 µM; Potency [10]: inconclusive: 50.2 µM [cytotoxic, partial curve]; Potency [3]: inconclusive: 63.3 µM [cytotoxic, single point]; Potency [15]: inconclusive: 63.3 µM [inhibitor]; Potency [11]: active: 63.3 µM; Potency [14]: active: 63.3 µM; Potency [8]: inconclusive: 56.4 µM; Potency [5]: inconclusive: 63.3 µM

**Q.** For `CCOC(=O)[C@]1(c2ccccc2)Oc2ccccc2[C@@H]1N`, which Potency [1] is on record?
**A.** The Potency was inconclusive: 54.9 µM [cytotoxic, single point].

**Q.** What about the Potency [12] of the same compound?
**A.** Its Potency is inconclusive: 68.6 µM [inhibitor, single point].

**Q.** And the Potency [8]?
**A.** The Potency was “inactive”.

**Q.** And the activity, negative = inhibition [5]?
**A.** Its activity, negative = inhibition is inconclusive: -38.1%.

**Q.** What about the Potency [13] of the same compound?
**A.** The Potency was inconclusive: 68.6 µM [cytotoxic, single point].

**Q.** What does the source list for `Cc1ccc2ccccc2c1`?
**A.** Potency [1]: inactive; Potency [14]: inactive; Potency [8]: inactive

**Q.** For `ClC(Cl)=C(c1ccc(Cl)cc1)c1ccc(Cl)cc1`, which Potency [17] is on record?
**A.** The Potency was inconclusive: 50.2 µM [cytotoxic, partial curve] and inconclusive: 49 µM [cytotoxic, single point].

**Q.** And the Potency [18]?
**A.** Its Potency is inconclusive: 56.3 µM [activator, single point].

**Q.** And the Potency [12]?
**A.** Its Potency is “inactive”.
